Laboratory results as given in US20250084178A1, “ANTI-CD39 ANTIBODIES AND USE THEREOF” (ARCUS BIOSCIENCES, INC., priority 2022, published 2025).

Experiments:
[1] = molecular target: T1, His-tagged human CD39 ECD (Homo sapiens, UniProt P49961); experiment: SPR kinetics, Biacore 8K, captured antibody and soluble CD39 ECD analyte; assay type: binding
T1 construct: purchased Sino Biological 16020-H08B
T1 sequence (P49961 with tags, fused parts or gaps): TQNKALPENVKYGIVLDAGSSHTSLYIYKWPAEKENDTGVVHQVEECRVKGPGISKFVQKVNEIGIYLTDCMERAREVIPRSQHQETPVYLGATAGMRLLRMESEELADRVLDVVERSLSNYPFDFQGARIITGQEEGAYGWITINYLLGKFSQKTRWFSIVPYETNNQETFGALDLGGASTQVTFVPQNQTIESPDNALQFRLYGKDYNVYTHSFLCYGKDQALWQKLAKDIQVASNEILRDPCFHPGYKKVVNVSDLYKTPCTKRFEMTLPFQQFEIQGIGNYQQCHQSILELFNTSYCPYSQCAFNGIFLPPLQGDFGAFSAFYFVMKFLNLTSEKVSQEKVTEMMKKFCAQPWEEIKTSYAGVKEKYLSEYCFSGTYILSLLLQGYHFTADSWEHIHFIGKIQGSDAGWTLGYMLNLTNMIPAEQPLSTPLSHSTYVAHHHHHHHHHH
Experimental: The kinetic binding of these recombinant anti-CD39 antibodies to human CD39 was determined by surface plasmon resonance (SPR) using a Biacore 8K instrument. Recombinant antibodies were immobilized using a goat anti-human Fc IgG coated CM5 sensor chip (GE, Cat. No. 29-1496-03), and soluble His-tagged CD39 ECD protein SEQ ID NO: 72 (Sino Biological, Cat. No. 16020-H08B) was used as the analyte. The binding constants were determined at 25° C.
The kinetics of purified antibody binding to antigen were determined using Surface Plasmon Resonance (SPR) and used to rank the antibodies. The affinity of anti-CD39 antibodies to human CD39 ECD His-tagged antigen (SEQ ID NO: 72) was measured using a Biacore 8K instrument. The activator was prepared by mixing 400 mM EDC and 100 mM NHS (GE) immediately prior to injection. The CM5 sensor chip (GE, Cat. No. 29-1496-03) was activated for 420 s with the activator. Goat anti-human Fc IgG (30 μg/mL in 10 mM NaAc, pH 4.5) was then injected to the channel for 420 s at a flow rate of 10 μL/minute. The chip was deactivated by 1 M ethanolamine hydrochloric acid. Anti-CD39 antibodies were diluted to 4 μg/mL in running buffer (1×HBS-EP+) and were injected to the channel at a flow rate of 10 μL/minute for 15 s. Six concentrations (8, 4, 2, 1, 0.5 and 0.25 nM) of the CD39 antigen analyte were injected orderly to the channel at a flow rate of 30 μL/minute for an association phase of 180 s, followed by a 2400 s dissociation phase. Glycine (10 mM, pH 1.5) as regeneration buffer was injected following the dissociation phase. The sensorgrams for reference channel and buffer channel were subtracted from the test sensorgrams. The experimental data were fitted with a 1:1 binding model steady state affinity/heterogeneous ligand. The molecular weights of the CD39 antigen and anti-CD39 antibodies used in the calculation were 52 and 145 kDa, respectively.

NLRP3 inflammasome = experiment: Macrophage IL-1β/IL-18 release assay; assay type: cell-based, human; conditions: in vitro derived macrophages; LPS, antibody 10 or 100 nM, 500 μM ATP; relative to isotype control
Experimental: Macrophage IL-1β/IL-18 Release Assay: The NLRP3 inflammasome is a multiprotein, cytosolic complex that once oligomerized allows for the cleavage and activation of pro-caspase-1 proteins into caspase-1. […] These cytokines are involved in innate immune responses, creating a generalized pro-inflammatory environment.
Anti-CD39 antibodies were tested for their ability to activate the NLRP3 inflammasome on macrophages, by measuring the secretion of mature IL-1β and IL-18. On day 0, previously isolated, positively selected CD14^+ monocytes (see Example 4 were defrosted and cultured in RPMI media with 10% heat inactivated FBS, 1% Glutamax, 1% Penicillin/Streptomycin and 50 ng/mL recombinant human M-CSF (R&D, Cat. No. 216MCC/CF) at a density of approximately 15×10^6 CD14^+ monocytes per 10 cm dish (Thermo Scientific Nunclon Delta Surface, Cat. No. 150464). On day 5, non-adherent cells were washed off and the adherent macrophages were collected by scraping and plated at a density of 0.125×10^6 cells per well in 24-well plates. The cells were then incubated overnight to allow adherence. […] The supernatants were collected and IL-1β levels were analyzed by CBA (BD, Cat. No. 558279) or ELISA (R&D, Cat. No. QK201) following manufacturer's instructions. IL-18 levels in the supernatants were analyzed by ELISA (R&D, Cat. No. DL180) following manufacturer's instructions. […]

[2] = 25° C., rat/human chimeric antibodies (Table 2)
[3] = humanized IgG4 (S228P) variants of antibody 39 (Table 5)
[4] = Clone 31 humanized IgG4 antibodies (Table 8)

B1: ch39_IGG4.P: rat/human IgG4 (S228P) chimera of antibody 39; HC SEQ ID NO: 39, LC SEQ ID NO: 40 (antibody)
heavy: EVQLVESGGGLVQPGRSLKLSCLASGFTFNNYGMNWIRQAPGKGLEWVASFSSSSTYISYADTVKGRFTISRENAKNTLYLQMTSLRSEDTALYYCVRHGRYGGYGGFYFDYWGQGVMVTVSSASTKGPSVFPLAPCSRSTSESTAALGCLVKDYFPEPVTVSWNSGALTSGVHTFPAVLQSSGLYSLSSVVTVPSSSLGTKTYTCNVDHKPSNTKVDKRV[no letters for human IgG4 Fc with S228P (EU numbers)]
light: DTVLTQSPALAVSPGERVSISCRASEGVKSYMHWYQQKPGQQPKLLIYKASNLASGVPARFSGSGSGTDFTLTIDPVEADDTATYFCQQSWNDPTFGAGTKLELKRTVAAPSVFIFPPSDEQLKSGTASVVCLLNNFYPREAKVQWKVDNALQSGNSQESVTEQDSKDSTYSLSSTLTLSKADYEKHKVYACEVTHQGLSSPVTKSFNRGEC
ka [1, 2]: 348000 M⁻¹ s⁻¹ | kd [1, 2]: 7.45e-05 s⁻¹ | ka [1, 3]: 280000 M⁻¹ s⁻¹ | kd [1, 3]: 9.4e-05 s⁻¹ | IL-1β release (NLRP3 inflammasome): increased | IL-18 release (NLRP3 inflammasome): increased

B2: ch19_IGG4.P: rat/human IgG4 (S228P) chimera of antibody 19; HC SEQ ID NO: 35, LC SEQ ID NO: 36 (antibody)
heavy: QVQLKETGPGLVQPTQTLSITCTVSGFSLTSYFTQWVRQTPGKGLEWMGFIRSGGSTQYNSAFKSRLSISRDTSKNQVFLKMNSLKTEDTGVYYCARDRPDYHDGTYGVLDVWGQGASVTVSSASTKGPSVFPLAPCSRSTSESTAALGCLVKDYFPEPVTVSWNSGALTSGVHTFPAVLQSSGLYSLSSVVTVPSSSLGTKTYTCNVDHKPSNTKVDKRV[no letters for human IgG4 Fc with S228P (EU numbers)]
light: DIRMTQSPASLSASLGETVNIECLASEDIDSDLAWYQKKPGKSPQLLIYNGNALQNGVPSRFSGSGSGTHFSLKINSLQSEDVATYFCQQYINYPYTFGGGTKLELRRTVAAPSVFIFPPSDEQLKSGTASVVCLLNNFYPREAKVQWKVDNALQSGNSQESVTEQDSKDSTYSLSSTLTLSKADYEKHKVYACEVTHQGLSSPVTKSFNRGEC
ka [1, 2]: 902000 M⁻¹ s⁻¹ | kd [1, 2]: 0.0004 s⁻¹

B3: ch31_IGG4.P: rat/human IgG4 (S228P) chimera of antibody 31; HC SEQ ID NO: 37, LC SEQ ID NO: 38 (antibody)
heavy: EVHLQQSGAALVRPGTSVKLPCKVSGDSITAYFMHFVRQRPGQGLEWMGRIDPDHERTKYAEKFKNRASLTSETSSNTVFLQLTSLTSEDTATYFCTTERVPGFETDYWGQGVMVTVSSASTKGPSVFPLAPCSRSTSESTAALGCLVKDYFPEPVTVSWNSGALTSGVHTFPAVLQSSGLYSLSSVVTVPSSSLGTKTYTCNVDHKPSNTKVDKRV[no letters for human IgG4 Fc with S228P (EU numbers)]
light: DIVLTQSPTLAVSLGQRATISCRTNQTVDHYGTTYMNWYQQKPGQQPKLLIYLASSLASGIPARFSGRGSGTDFTLTIDPVEADDTATYYCQQSRNLWTFGGGTKLELKRTVAAPSVFIFPPSDEQLKSGTASVVCLLNNFYPREAKVQWKVDNALQSGNSQESVTEQDSKDSTYSLSSTLTLSKADYEKHKVYACEVTHQGLSSPVTKSFNRGEC
ka [1, 2]: 1.1e+06 M⁻¹ s⁻¹ | kd [1, 2]: 0.000125 s⁻¹ | ka [1, 4]: 1.16e+06 M⁻¹ s⁻¹ | kd [1, 4]: 0.00015 s⁻¹

B4: hu31.7_IGG4.P: humanized variant of antibody 31; HC SEQ ID NO: 52, LC SEQ ID NO: 57 (antibody)
heavy: EVQLVQSGAEVKKPGATVKISCKVSGDSITAYFMHWVQQAPGKGLEWMGRIDPDHERTKYAEKFKNRVTITADTSTNTVYMELSSLRSEDTAVYYCATERVPGFETDYWGQGVMVTVSSASTKGPSVFPLAPCSRSTSESTAALGCLVKDYFPEPVTVSWNSGALTSGVHTFPAVLQSSGLYSLSSVVTVPSSSLGTKTYTCNVDHKPSNTKVDKRV[no letters for human IgG4 Fc with S228P (EU numbers)]
light: DIVMTQSPDLAVSLGERATINCRTQQTVDHYGTTYMNWYQQKPGQPPKLLIYLASSLASGVPDRFSGSGSGTDFTLTISSLQAEDVAVYYCQQSRNLWTFGGGTKVEIKRTVAAPSVFIFPPSDEQLKSGTASVVCLLNNFYPREAKVQWKVDNALQSGNSQESVTEQDSKDSTYSLSSTLTLSKADYEKHKVYACEVTHQGLSSPVTKSFNRGEC
ka [1, 4]: 1.24e+06 M⁻¹ s⁻¹ | kd [1, 4]: 0.000615 s⁻¹
